Where “and” joins values, the source holds several entries; their conditions need not be identical. Equal values may be shown once.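 Step 1: Grow cells in 96-well plates. Step 2: Expose to compound for 48 hours at 5 concentrations. Step 3: Interpolate endpoints linearly; if unreached, use highest concentration. GI50 marks 50% less growth. The concentration for full growth arrest is given as TGI.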 Peptide text beside a SMILES is read from it. * marks the point of attachment. Cbz = O=C(OCc1ccccc1)*

In this assay the test system is NCI-H322M lung. Nature of the assay: growth of human tumour cells (NCI), 48 h.
For `Cc1[nH]n(-c2nc(O)c(-c3ccccc3)c(=O)[nH]2)c(=O)c1CCO`, the TGI was more than 100 µM.
Same read-out and setting: in the case of `CC1=NC(C)(COC(=O)C2(C)NC(C)(CO)CO2)COC1=O` (configuration not stated) it was more than 100 µM.
`C(=Nc1ccc2c(c1)Cc1ccccc1-2)c1ccccn1` displayed a TGI of more than 100 µM.
On to `O=C(NC1CCCCC1)c1ccc(Nc2ncnc3c2cnn3-c2ccccc2)cc1`, for which the GI50 was 15.8 µM and the TGI was more than 100 µM.
Molecule `CCOC(=O)C(Cc1ccc(O)cc1)Nc1nc(=O)c2c(=O)oc(Cl)cc2o1` (configuration not stated) gave a TGI of 36 µM.
In turn, `CC1CC(Nc2ccc(Br)cc2)N(C(=O)c2ccc(Br)cc2)O1` (configuration not stated) had a TGI of more than 10 µM.
In turn, `CCOC(=O)C(C)(c1c(C)[nH]c2ccccc12)c1c(C)[nH]c2ccccc12` gave a TGI of 45.1 µM.
`N#Cc1cc2c(cc1Cl)Sc1nnc(Nc3ccccc3)n1S2(=O)=O`: the TGI came to 7.41 µM.
On to `O=C(N[C@@H](Cc1coc2ccccc12)B(O)O)[C@@H]1C[C@H]2CC[C@@H]1O2`, for which the GI50 is more than 100 µM and the TGI was more than 100 µM.
`Nc1c(S(=O)(=O)c2ccccc2)c2nc3ccccc3nc2n2c1nc1ccccc12` returned a TGI of more than 100 µM.
The molecule `CCCCCCCCCCCC(=O)OC[C@@H](C[As](=O)(O)O)OC(=O)CCCCCCCCCCC` displayed a TGI of 23.1 µM.
On the same count and under the same terms, in the case of `COc1cccc(-c2nc(-c3cnccn3)n(C/C=C/c3ccccc3)n2)c1` it was more than 10 µM.
Molecule `NC1(CCNC(=O)c2ccccc2)CCN(C(=O)c2ccccc2)CC1` gave a TGI of more than 100 µM.
The same measure, in the same setting: next, `C1COCCSC2=C(SCCO1)SC(=C1SC3=C(SCCOCCOCCS3)S1)S2`: more than 100 µM; `Cc1ccc(NC(=O)C(=O)C2C(=O)NC(=O)NC2=O)cc1C`: more than 100 µM; `CCOC(=O)CCC(NC(=O)C(Cc1ccccc1)NC(=O)OCc1ccccc1)C(=O)OCC` (stereo not drawn) (Cbz-Phe-Glu(OEt)-OEt; configuration not given here): 31.3 µM.
On the same count and under the same terms, next, `CNC(C)C(O)c1ccc2oc3cc(=O)c4ccccc4c-3nc2c1` (configuration not stated): 29.7 µM; `COc1ccc2nc3cc(Cl)ccc3c(Sc3ccc(NC(C)=O)cc3)c2c1`: more than 52.6 µM.
In the case of `COc1cc(/C=C2\CCC/C(=C\c3ccc(OCC4CO4)c(OC)c3)C2=O)ccc1OCC1CO1` (configuration not stated), the GI50 was 5.68 µM and the TGI was more than 100 µM.
Take `COC(=O)C1=C(OC)[C@H]2C#C/C=C\C#C[C@@H]3Nc4c(cc(O)c5c4C(=O)c4ccccc4C5=O)[C@]24O[C@@]34[C@H]1C`: the TGI worked out at 0.0438 µM.
On the same count and under the same terms, in the case of `CC(=O)O[C@@]12CO[C@@H]1CC(O)[C@@]1(C)C(=O)[C@H](O)C3=C(C)C(O)C[C@@](O)(C(OC(=O)c4ccccc4)C12)C3(C)C` (some centres not stated) it was more than 100 µM.
Turning to `Cc1noc2c1-c1ccccc1C(c1ccc(Cl)cc1)=N[C@H]2CC(N)=O`, the GI50 is 7.34 µM and the TGI was more than 100 µM.
As for `COc1cc(Nc2nc3cc(C(F)(F)F)ccc3nc2C(=O)O)cc(OC)c1OC`, the TGI is more than 100 µM.
In turn, `CCOC(=O)c1ccc(-c2ccc(Cl)cc2)[nH]1` registered a TGI of more than 10 µM.
In the case of `Nc1nc(SCc2ccccc2Cl)c2[nH]cnc2n1`, the TGI is more than 100 µM.
Take `NCCCOc1cc(Cl)ccc1NC(=O)c1cc2ccccc2cc1OCCCN`: the GI50 was 1.39 µM and the TGI came out at 2.89 µM.
Molecule `OC(C/C=N/N=C/CC(O)(C(F)(F)Cl)C(F)(F)Cl)(C(F)(F)Cl)C(F)(F)Cl` came in with a TGI of more than 10 µM.
For the molecule `O=C(NNc1cnccn1)c1nc2cc(F)ccc2n2cccc12`, the GI50 is 0.59 µM and the TGI was more than 100 µM.
`CN(C)CCCNc1ccc2ncn3c4ccc(O)cc4c(=O)c1c23`: the TGI came to 14.8 µM.
Consider `COc1ccc(/C=C/c2cnccn2)cc1OC`, for which the TGI was more than 10 µM.
As for `O=c1cc(NNc2cccc(Cl)c2)[nH]c(=O)[nH]1`, the TGI was more than 100 µM.
`CC(=O)NC1C(Sc2ncn(C3OC(CO)C(O)C(O)C3NC(C)=O)n2)OC(CO)C(O)C1O` (configuration not stated) came in with a TGI of more than 100 µM.
Turning to `N[C@H](Cc1ccc2oc3cc(=O)c4ccccc4c-3nc2c1)C(=O)O`, the TGI was more than 100 µM.
In the case of `c1ccc(NCCSc2nc3ccccc3s2)cc1`, the TGI is more than 100 µM.
Take `O=C1C=C(Nc2ccc(S(=O)(=O)Nc3nccs3)cc2)c2ccccc2C1=O`: the TGI was more than 100 µM.
On the same count and under the same terms, in the case of `O=[N+]([O-])c1ccc(Sc2c3ccccc3nc3ccccc23)cn1` it was more than 70.3 µM; in that of `C1=NC(N(Cc2ccccc2)Cc2ccccc2)N(Cc2ccccc2)N1` (configuration not stated), 39.3 µM.
With `O=C1c2ccccc2OCC12OC21C=CC(Cl)=CC1` (configuration not stated), the TGI came to 79.4 µM.
On the same count and under the same terms, next, `NCCCN(CCCN)CCc1cn(C(=O)c2ccccc2)cn1`: 26.9 µM.
Consider `COC(=O)[C@]12CC[C@@H](C)[C@H](C)[C@@H]1C1=CC[C@@H]3[C@@]4(C)C(C=O)=C[C@@](C)(COC(=O)c5ccco5)[C@@H]4[C@H](O)C[C@@]3(C)[C@]1(C)CC2`, for which the GI50 is 4.74 µM and the TGI came to 25.4 µM.
Consider `Cc1ccc(C)c(N2C(=O)C(=O)C(c3nc4ccccc4o3)/C(=N/N)C2=O)c1` (configuration not stated), for which the TGI is more than 100 µM.
On to `CN1CCN(/C(N)=C(\C#N)C(=O)Nc2ccc(Cl)cc2)CC1`, for which the TGI was more than 100 µM.
The same measure, in the same setting: next, `COc1ccc(/C=N/N=C(\N)NO)c(OC)c1C`: more than 100 µM.
On the same count and under the same terms, next, `CC(=O)c1ccc2c(c1)C(=O)c1sc(C(C)=O)cc1C2=O`: 23.4 µM and 11.5 µM.
Take `COc1cc(OC)c2sc(-c3ccc(-n4cncc4-c4cc(OC)c(OC)c(OC)c4)cc3)nc2c1`: the GI50 was more than 100 µM and the TGI is more than 100 µM.
The molecule `CCC(=O)OCN(C)c1nc(N(C)COC(=O)CC)nc(N(C)COC(=O)CC)n1` gave a TGI of more than 100 µM.
On the same count and under the same terms, in the case of `COCCn1cnc2c(Cl)nc(Nc3ccccc3)nc21` it was 89.6 µM.
Regarding `O=c1[nH]c2nc3ccccc3c(=O)n2/c1=C/c1cccs1`, the TGI was more than 100 µM.
The molecule `CCCCCCc1cc2cc(C(=O)Nc3ccc(F)cc3)c(=N)oc2cc1O` had a TGI of 73.7 µM.
`CSc1ccc2c(cc1=O)[C@@H](NC(=O)c1cc(O)c(O)c(O)c1)CCc1cc(O)c(O)c(O)c1-2`: the TGI worked out at 35.9 µM.
With `C=C(C)[C@@H]1CC[C@]2(C)[C@H](CC[C@@H]3[C@@H]([C@@](C)(O)CCC=C(C)C)CC[C@]32C)[C@@]1(C)CCC(=O)O`, the GI50 was 16.2 µM and the TGI is 30.9 µM.
As to `CCOC(=O)CCC1(CCC(=O)OCC)CCCCCCCCC(CCC(=O)OCC)(CCC(=O)OCC)C(=O)C1=O`, the TGI is more than 100 µM.
Same read-out and setting: in the case of `CN1CCc2c(sc3[nH]c(=S)[nH]c(=S)c23)C1` it was more than 100 µM.
